Source: the supplement of paper PMC7125110
Variants at the background level are over-represented here.

B1: glmS ribozyme (parent)
chain: AUAAAAGCGCCAGAACUACAGAAAUGUAGUUGACGAGGAGGAGGUUUAUCGAAUUUUCGGCGGAUGCCUCCAAA

Variants of: B1
Assay: self-cleavage kobs at 2500 uM GlcN6P; higher = faster cleavage; RNA array
Settings: with glucosamine-6-phosphate
Summary of the method: (§1)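 Barcoded ribozyme variants were transcribed in situ on sequenced MiSeq chips by E. coli RNA polymerase. At 37 °C, a hybridised Cy3 probe tracked them while glucosamine-6-phosphate (40 μM to 10 mM) in HEPES/KCl/Mg(OAc)2 buffer flowed in and tiles were imaged over ~14 h. Per-tile medians of signals normalised to baseline and to non-cleaving reference variants were fit to one- or two-exponential decays, giving kobs. kcat and KM came from weighted Michaelis–Menten fits across concentrations.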

self-cleavage kobs at 2500 uM GlcN6P, < 1e-05 s⁻¹:
AUAAAAGGGCCAGAAAUACAGAAAUGUAGUUGACGAGGAGGAUUUUUAUCGAAUUUUCGGCAGAUGCCUCCAAA [C8G C16A G43U G44U G62A]
AUAAAAUCGCCAGAACUACAGAAAUGUAGUUGACGAGGAGGAGGUUUAUCGAAUAAUCGGCGGAUGCCUCCAAA [G7U U55A U56A]
AUAAAAGGGCCAGAACUACAGAAAUGUAGUAGACGAGGAGGAGGUUUAACGAAUUUUCGGCGGAUGCCUCCAAA [C8G U31A U49A]
AUAAAAGGGCCAGAACUACAGAAAUGUACUUGACGAGGAGGAGGUUUAUCGAAUUUUCGUCGGAUGCCUCCAAA [C8G G29C G60U]
AUAAAAGAACCAGAACUACAGAAAUGUAGUUGACGAGGAGGAGGUUUAUCGAAUUUUCGGCGGAUGCCUCGAAA [C8A G9A C71G]
AUAAAAGGGCCAGAACUACAGAAAUGUAGUUGACGAGGAGGAGGUUUAUCGAAUUUUCGGCGGAUUCCUAUAAA [C8G G66U C70A C71U]
AUAAAAGGGCCAGGACUACAGAAAUGUAGUUUACGAGGAGGAGGUUUAUCGAAUUUUCGGCGGUUGCCUCCAAA [C8G A14G G32U A64U]
AUAAAAGAGCCAGAACUACAGAAAUGUAGUUGACGAGGAGGAAGUUUAUCGAAUUUUCGGUGGAUGCCUCCAAA [C8A G43A C61U]
AUAAAAGAGCCAGAACUACAGAAAUGUAGUUGACGAGGAGGAGGUUUAUCGAAUUUUUGGCGGUUGGCUCCAAA [C8A C58U A64U C67G]
AUAAAAGAUCCAGAACUACAGAAAUGUAGUUGACGAGGAGGAGGUUUAUCGAAUUUUCGGCGGAUGUCUCCAAA [C8A G9U C67U]
AUAAAAGAGCCAGAACUACAGAAAUGUAGUUGACGAGGCGCAGGUUUAUCGAAUUUUUGGCGGAUGCUUCCAAA [C8A A39C G41C C58U C68U]
AUAAAAGGGCCUGCACUACAGAAAUGUAGUUGACGAGGAGGAGGUUUUUCGAAUUUUCGGCGGCUGCCUUCAAA [C8G A12U A14C A48U A64C C70U]
AUAAAAGAGCCAGAACUACAGAAAUGUAGUUGACGGGGAGGAGGUUUAUCGAGUUUUCGGCGGAUGCCUCCAAA [C8A A36G A53G]
AUAAAAGGGCCAGAACUACAGAAAUGUAGUUGCUGAGGAGGAGGUGUAUCGAAUUUUCGGCGGACGCCUCCAAA [C8G A33C C34U U46G U65C]
AUAAAAGAGCAAGAACUACAGAAAUGUAGUUGACGAGUAGGAGGUUUAUCGAAUUUUCGGGGGAUGCCUCCAAA [C8A C11A G38U C61G]
AUAAAAUCGCCAGAACUACAGAAAUGUAGGUGUCGAGGAGGAGCUUUAUCGAAUUUUCGGCGGAUGCCUCCAAA [G7U U30G A33U G44C]
AUAAAAGGGCCAGAAAUACAGAAAUGUAGUUGACGAGGAGGAGGUUUAUCGAAUUUUCGUCGGAUGCCUCCAAA [C8G C16A G60U]
AUAAAAGGGCCAGAACUACAGAAAUGUAAUUGACGAGGCGGAGGUUUAUCGAUUUUUCGGCGGAUUCCUCCAAA [C8G G29A A39C A53U G66U]
AUAAAAGGGCCAGGACUACAGAAAUGUAGUUGACGAGGCGGAGAUUUAUCGAAUUUUCGGCGGAUGCCUCCAAA [C8G A14G A39C G44A]
AUAAAAGGGCCAGACCUACAGAAAUGUAGUUGACGGGGAGGAGGUUUAUCGAAUUUUCGGCGGAUGCCUCCAAA [C8G A15C A36G]
AUAAAAGUGCCAGGACUACAGAAAUGUAGUUGACGAGGAGGAGGUUUAUUGAAUUUUCGGCGGAUGCCUCGAAA [C8U A14G C50U C71G]
AUAAAAGAGCCAGAACUACAGAAAUGUAGUUGACGAGGAGGAGGUUUAUCGAAUCUUCGGCGGAUGCCUACAAA [C8A U55C C70A]
AUAAAAGAGCCAGAACUACAGAAAUGUAGUUGACGAGGUGGAGCUUUAUCGAAUUUUCGGCGGAUGCCUCCAAA [C8A A39U G44C]
AUAAAAGGGCCAGAACUACAGAAAUGUAGUUGACCAGGUGGAGGUUAAUCGAAUUUUCGGCGGAUGCCUCCAAA [C8G G35C A39U U47A]
AUAAAAGAGCCAGAACUACAGAAAUGUAGUUGUCGAGGAGGAGGUUUAUCGAAUUUUCGGCGGAUGCGUCCAAA [C8A A33U C68G]
AUAAAAUCGCCAGAACUACAGAAAUGUAGUUGACGAGGAGGAGGAUUAUCGAAUUUUAGGCGGAUGCCUCCAAA [G7U U45A C58A]
AUAAAAGGUCCAGAACUACAGAAAUGUAUUUGACGAGGAGGAGGUUUAUCGAAUUUUCGGCGGAUGCCUCUAAA [C8G G9U G29U C71U]
AUAAAAGAGCCAGAACUACAGAAAUGUAGUUGACGAGGAGGAGGUUUAUCGAAUUUUCGGCGAAUGUCUCCAAA [C8A G63A C67U]
AUAAAAGAGCCAGAACUACAGAAAUGUAGUUGACGAGAAGGAGGUUUAUCGAAUUUUCGGCGUAUGCUUCCAAA [C8A G38A G63U C68U]
AUAAAAGAGCCAGAACUACAUAAAUGUAGUCCACUAGGAGGAGGUUUAUCGAAUUUUCGGCGGAUGCCUCCAAA [C8A G21U U31C G32C G35U]
AUAAAAGAGCCAGCACUACAGAAAUGUAGUUGACGAGGAGGAGGUUUAUCUAAUUUUCGGCGGAUGCCUCCAAA [C8A A14C G51U]
AUAAAAGGUCCAGAACUACAGAAAUGUAGUUGACGAGGAGGAGAUUUAUCCAAUUUUCGGCGGAUGCCUCCAAA [C8G G9U G44A G51C]
AUAAAAGGGCCAGAACUACAGAAAUGUAGAUGACGAGGAGGAGGUUUAUCGAAUUUUCGGCGGAGGCCUUCAAA [C8G U30A U65G C70U]
AUAAAAGGGCCAGAACUACAGAAAUGUAGUUGACGAGGAGGCGGUUUAUCGAAUUUUCGGCGGAUGUCUUCAAA [C8G A42C C67U C70U]
AUAAAAGAGCCAGAACUACAGAAAUGUAGUUUACGAGGAGGAGGUUUCUCGAAUUUUCGGCGGAUGCCUCCAAA [C8A G32U A48C]
AUAAAAGUGCCAGGACUACAGAAAUGUAGUUGACGAGGAGGCGGUGUAACGAAUUUUCGGCGGAUACCUCCAAA [C8U A14G A42C U46G U49A G66A]

Variants of: B1
Assay: self-cleavage kobs at 10000 uM GlcN6P; higher = faster cleavage; RNA array
Settings: with glucosamine-6-phosphate
Summary of the method: as §1

self-cleavage kobs at 10000 uM GlcN6P, < 1e-05 s⁻¹:
AUAAAAGGGCCAGAACUACAGAAAUGUACUUGACGAGGAGGAGGUUUAUCGAAUUUUCGUCGGAUGCCUCCAAA [C8G G29C G60U]
